From PubChem BioAssay AID1468 (National Center for Advancing Translational Sciences (NCATS), 2008)
In all, about 280,000 compounds went through this assay and about 1,100 (0.39%) were called active. Inconclusive means that the source gave no clear call. Such entries were picked first, then a sample of the others. Calls come from the whole dose curve; as a rule, active = well fitted inhibition curve with a large enough effect; inconclusive = small, poorly fitted or top-dose-only effect, or effect the other way; inactive = flat fitted curve, though single readings scatter. No potency is given beside an inconclusive call; the fits are too rough.

Each compound was assayed against Microtubule-associated protein tau (Homo sapiens) (UniProt P10636) (assay: qHTS for Inhibitors of Tau Fibril Formation, Fluorescence Polarization). Conditions: K18 P301L tau heparin fibrillization, Alexa594 FP, 6 h; series mostly up to 57.7 µM.
Summary of the method: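 Recombinant K18 P301L […], labeled with Alexa 594 at 0.24 uM over 15 uM unlabeled; heparin inducer 20 uM final; 37 C, 6 hr; FP endpoint.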
Note: nearly all actives have a fitted effect of over 55% in size.
Potency is the fitted concentration of half-maximal effect; tags give direction and shape of the fitted curve.

UniProt P10636, sequence (P10636 whole entry, looked up): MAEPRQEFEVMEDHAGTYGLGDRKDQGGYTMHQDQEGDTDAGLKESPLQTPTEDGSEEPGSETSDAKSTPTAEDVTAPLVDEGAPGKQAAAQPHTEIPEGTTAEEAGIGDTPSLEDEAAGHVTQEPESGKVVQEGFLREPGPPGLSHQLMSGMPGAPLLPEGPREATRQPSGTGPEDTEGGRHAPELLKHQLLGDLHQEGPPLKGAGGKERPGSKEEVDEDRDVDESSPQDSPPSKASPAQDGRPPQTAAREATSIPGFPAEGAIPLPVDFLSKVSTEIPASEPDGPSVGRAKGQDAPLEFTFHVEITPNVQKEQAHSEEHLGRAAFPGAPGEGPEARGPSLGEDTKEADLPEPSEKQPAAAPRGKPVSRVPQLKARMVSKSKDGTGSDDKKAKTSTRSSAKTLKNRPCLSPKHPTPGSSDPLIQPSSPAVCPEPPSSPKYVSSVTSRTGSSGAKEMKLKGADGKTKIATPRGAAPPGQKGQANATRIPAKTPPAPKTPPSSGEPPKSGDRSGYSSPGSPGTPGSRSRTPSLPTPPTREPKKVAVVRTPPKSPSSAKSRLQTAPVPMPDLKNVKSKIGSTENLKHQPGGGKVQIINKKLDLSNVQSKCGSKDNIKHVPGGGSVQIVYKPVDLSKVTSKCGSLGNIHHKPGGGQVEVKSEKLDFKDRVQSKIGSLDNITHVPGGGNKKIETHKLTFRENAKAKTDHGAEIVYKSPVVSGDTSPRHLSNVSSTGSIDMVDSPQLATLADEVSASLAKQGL

Question: With `Cc1ccc(SCc2cc(=O)n(C)[nH]2)cc1` as the compound, how does the Potency read?
Answer: inconclusive [inhibitor, partial curve]

Question: `CC(=O)Nc1cccc(C(=O)OC(C(=O)c2ccc(C)c(C)c2)c2ccccc2)c1` (configuration not stated) was tested. Which Potency did it give?
Answer: active: 15.8 µM

Question: `CC1CCCN(c2ccc(C(=O)Nc3nnc(C4CC4)s3)cc2[N+](=O)[O-])C1` (configuration not stated) was tested. Which Potency did it give?
Answer: inconclusive [inhibitor, partial curve]

Question: Which Potency does the source give for `CCc1ccc(NS(=O)(=O)c2ccc3[nH]cc(C(=O)NCCc4ccccc4)c(=O)c3c2)cc1` here?
Answer: inconclusive [inhibitor, full curve]

Question: With `O=C(N/N=C/c1ccco1)c1cc(-c2cccc(Br)c2)nc2ccccc12` as the compound, how does the Potency read?
Answer: inconclusive [inhibitor, partial curve, poor fit]

Question: Which Potency does the source give for `COc1cc(NC(=O)c2cccc([N+](=O)[O-])c2)ccc1NC(=O)c1ccco1` here?
Answer: inconclusive [inhibitor, single point]

Question: For `O=c1cc(O)c2c(=O)n(-c3ccccc3)c3c(c2o1)CCCCC3`, which Potency is on record?
Answer: inactive

Question: Which Potency does the source give for `Cc1ccc(C)c(NC(=O)C2CCCN2S(=O)(=O)c2ccc3c(c2)CCCC(=O)N3)c1` (configuration not stated) here?
Answer: inactive

Question: Which Potency does the source give for `CC1=CC(C)(C)Nc2ccc(OS(=O)(=O)c3ccc(C)cc3)cc21` here?
Answer: inconclusive [inhibitor, single point]

Question: For `Fc1ccc(CN2CCN(c3ncccn3)CC2)cc1`, which Potency is on record?
Answer: inactive

Question: For `N#C/C(=C\c1ccccc1)c1nc(-c2cc3c(ccc4ccccc43)oc2=O)cs1`, which Potency is on record?
Answer: inconclusive [inhibitor, partial curve]

Question: With `COc1ccc(Nc2nnc(C)c(=O)[nH]2)cc1` as the compound, how does the Potency read?
Answer: inconclusive [inhibitor, single point]

Question: `Cc1ccc2nc(N3CCN(c4ccc(F)cc4)CC3)c3nnnn3c2c1` was tested. Which Potency did it give?
Answer: inconclusive [activator, partial curve]

Question: With `COC(=O)/C(C#N)=C/c1ccc(OC(=O)c2ccccn2)cc1` as the compound, how does the Potency read?
Answer: inactive

Question: For `CN1CCN(C(=O)/C=C/c2ccc([N+](=O)[O-])o2)CC1`, which Potency is on record?
Answer: inactive

Question: Which Potency does the source give for `O=C1NCCCC2c3cc(O)c4ccccc4c3OC12N1CCCCC1` (configuration not stated) here?
Answer: inconclusive [inhibitor, partial curve]

Question: With `COc1ccc(S(=O)(=O)NCC(c2ccco2)S(=O)(=O)c2cccs2)cc1OC` (configuration not stated) as the compound, how does the Potency read?
Answer: inconclusive [inhibitor, single point]

Question: With `Oc1ccc(NC(=S)Nc2ccc(O)cc2)cc1` as the compound, how does the Potency read?
Answer: inconclusive [inhibitor, partial curve]

Question: How did the Potency turn out when `CC(Nc1nc(-c2ccccc2)nc2ccccc12)c1ccccc1` (configuration not stated) was run?
Answer: inconclusive [inhibitor, partial curve]

Question: `Cc1c(-c2cccc(NC(=O)Cc3ccccc3)c2)nc2ncccn12` was tested. Which Potency did it give?
Answer: inconclusive [inhibitor, partial curve, poor fit]

Question: Which Potency does the source give for `CCOc1ccc(-c2c(C)nn3c(C)c(C(=O)NC(C)c4ccccc4)cnc23)cc1OCC` (configuration not stated) here?
Answer: inconclusive [activator, single point]

Question: How did the Potency turn out when `CSc1nc(-c2ccco2)nn1C(=O)c1ccc(Cl)cc1` was run?
Answer: inconclusive [inhibitor, single point]

Question: `COc1ccccc1NC(=O)C(=N\O)/C(C)=N/O` was tested. Which Potency did it give?
Answer: inactive

Question: How did the Potency turn out when `C=CCOCCN(C)C1=NS(=O)(=O)c2cc([N+](=O)[O-])ccc21` was run?
Answer: inactive

Question: `COc1ccc(CNc2nc(-c3ccccc3)nn2C(=O)c2ccccc2OC)cc1` was tested. Which Potency did it give?
Answer: inconclusive [inhibitor, partial curve, poor fit]

Question: Which Potency does the source give for `Cc1nn2c(NCCOCCO)c3c(nc2c1-c1ccccc1)CCC3` here?
Answer: inconclusive [activator, partial curve]

Question: Which Potency does the source give for `COc1ccc(OCc2n[nH]c(=S)n2-c2ccc(C)cc2)cc1` here?
Answer: inactive

Question: How did the Potency turn out when `Cc1cc(/C=C2\NC(=O)N(Cc3ccc(Cl)cc3)C2=O)c(C)n1C` was run?
Answer: inconclusive [activator, partial curve, poor fit]

Question: For `O=C(Nc1ccccc1)C1=C[C@H](c2ccc3c(c2)OCO3)C[C@H](OCc2ccc(CO)cc2)O1`, which Potency is on record?
Answer: inconclusive [activator, single point]

Question: `COC(=O)c1cc(NC(=O)CSc2nc(C)cc(=O)[nH]2)cc(C(=O)OC)c1` was tested. Which Potency did it give?
Answer: inactive

Question: With `CC(Nc1ncnc2c1cnn2-c1cccc(Cl)c1)c1ccccc1` (configuration not stated) as the compound, how does the Potency read?
Answer: inconclusive [inhibitor, partial curve]

Question: Which Potency does the source give for `CCN(CC)c1ccc(NC(=S)Nc2ccc(F)cc2)cc1` here?
Answer: inconclusive [inhibitor, partial curve]

Question: Which Potency does the source give for `CCOC(=S)SCc1cn2ccccc2n1` here?
Answer: inconclusive [inhibitor, single point]

Question: For `CCOc1cc(/C=C2\C(=O)N(c3ccc(C(N)=O)cc3)N=C2C)ccc1OC(=O)c1cccs1`, which Potency is on record?
Answer: inconclusive [inhibitor, partial curve, poor fit]

Question: `CN1CCCN(c2ncnc3scc(-c4ccc(F)cc4)c23)CC1` was tested. Which Potency did it give?
Answer: inconclusive [inhibitor, single point]

Question: `CN1c2cccc3cccc(c23)N(C)C1c1cccs1` was tested. Which Potency did it give?
Answer: inactive

Question: `CC(C)NC(=S)N=Nc1c(O)[nH]c2ccc([N+](=O)[O-])cc12` was tested. Which Potency did it give?
Answer: inactive

Question: How did the Potency turn out when `N#CCCN(CCC#N)S(=O)(=O)c1ccc(C(=O)Nc2nc(-c3ccccc3)c(C(=O)c3ccccc3)s2)cc1` was run?
Answer: inconclusive [inhibitor, partial curve]

Question: With `COC(=O)c1sc2cccc(F)c2c1S(=O)(=O)NCc1ccc(F)cc1` as the compound, how does the Potency read?
Answer: inconclusive [inhibitor, partial curve]

Question: For `COc1ccc(CSCCNC(=S)Nc2ccccc2)cc1Cl`, which Potency is on record?
Answer: inconclusive [inhibitor, partial curve, poor fit]

Question: With `COc1ccc(C(=O)O/N=C(/c2ccccc2)c2ccncc2)cc1` as the compound, how does the Potency read?
Answer: inconclusive [activator, single point]

Question: With `O=S(=O)(c1ccccc1)n1nc(-c2ccc(Cl)cc2)nc1NCc1ccc(F)cc1` as the compound, how does the Potency read?
Answer: inconclusive [inhibitor, partial curve]

Question: With `CCC(C)/C(C)=N/NC(=O)c1cn(-c2ccccc2)nc1-c1ccccc1` (configuration not stated) as the compound, how does the Potency read?
Answer: inactive

Question: With `O=C(CN1CCN(Cc2ccccc2Cl)CC1)N/N=C/c1ccccn1` as the compound, how does the Potency read?
Answer: inactive

Question: With `O=S(=O)(c1ccc2c(c1)C(=NO)c1cc(S(=O)(=O)N3CCCCC3)ccc1-2)N1CCCCC1` as the compound, how does the Potency read?
Answer: inconclusive [inhibitor, partial curve, poor fit]

Question: Which Potency does the source give for `CCc1nnc(NC(=O)CSc2nnc(COc3ccccc3C)o2)s1` here?
Answer: inactive

Question: With `O=S(=O)(NCc1cn2ccccc2n1)c1cc(F)ccc1F` as the compound, how does the Potency read?
Answer: inactive

Question: With `O=C(Nc1ccc2oc(-c3ccc4ccccc4c3)nc2c1)c1cccc(Cl)c1Cl` as the compound, how does the Potency read?
Answer: inconclusive [inhibitor, partial curve]

Question: For `CCN(CC)CCNC(=O)c1ccc(NC(=O)c2cn(-c3ccccc3)nc2-c2cccs2)cc1`, which Potency is on record?
Answer: active: 10 µM

Question: `O=C(Nc1nc(-c2ccc3c(c2)OCCO3)cs1)c1ccc(S(=O)(=O)N2CCCCC2)cc1` was tested. Which Potency did it give?
Answer: inconclusive [inhibitor, single point]

Question: Which Potency does the source give for `CC(C)(C)c1ccc(/C=N/Nc2ccc(C(=O)O)cc2)cc1` here?
Answer: inconclusive [activator, partial curve]

Question: How did the Potency turn out when `Cc1ccc(C(=O)c2cc([N+](=O)[O-])ccc2N2CCOCC2)cc1C` was run?
Answer: inconclusive [activator, single point]

Question: How did the Potency turn out when `O=C(CS(=O)(=O)c1ccc(Cl)cc1)Nc1nc2ccc(Br)cc2s1` was run?
Answer: inconclusive [inhibitor, partial curve]

Question: How did the Potency turn out when `Cc1ccccc1OC1C(=O)N(Cc2ccc3c(c2)OCO3)C1c1sccc1C` (configuration not stated) was run?
Answer: inconclusive [inhibitor, partial curve, poor fit]

Question: With `Cc1ccc(/C(N)=N/OC(=O)CCc2ccccc2)cc1` as the compound, how does the Potency read?
Answer: inconclusive [inhibitor, single point]

Question: With `CCOc1ccc(C2=C(C(C)=O)Sc3nnc(C)n3N2C(C)=O)cc1` as the compound, how does the Potency read?
Answer: inconclusive [inhibitor, partial curve]

Question: With `CCc1ccc(C(=O)NC(=S)Nc2ccc(N3CCOCC3)cc2)cc1` as the compound, how does the Potency read?
Answer: inconclusive [activator, partial curve, poor fit]

Question: How did the Potency turn out when `CC1=NN(c2cccc(C(=O)O)c2)C(=O)/C1=C\C=C/c1ccccc1` was run?
Answer: inconclusive [inhibitor, full curve]

Question: With `CCOCc1c(C(=O)Nc2cc(OCC)c(N3CCOCC3)cc2OCC)oc2ccccc12` as the compound, how does the Potency read?
Answer: inconclusive [activator, partial curve]

Question: `c1ccc(SCCc2ccncc2)cc1` was tested. Which Potency did it give?
Answer: inactive

Question: With `O=C(N/N=C/c1cc([N+](=O)[O-])ccc1O)C1C2CCCCC21` (configuration not stated) as the compound, how does the Potency read?
Answer: inactive

Question: With `COc1cc(OC)cc(C(=O)NC(=S)NNC(=O)Cc2cccs2)c1` as the compound, how does the Potency read?
Answer: inactive

Question: How did the Potency turn out when `CCOC1(c2ccccc2)CC1C(=O)N/N=C/c1cccc([N+](=O)[O-])c1` (configuration not stated) was run?
Answer: inactive

Question: For `CC1=Nc2ccc(C)cc2/C1=C/c1c(N)n2c(S(=O)(=O)C(C)C)nsc2nc1=O`, which Potency is on record?
Answer: inconclusive [activator, single point]

Question: With `CC(=O)C(N=Nc1ccccc1)(Sc1nnc(-c2ccccc2)n1-c1ccccc1)C(=O)Nc1ccccc1` (configuration not stated) as the compound, how does the Potency read?
Answer: inconclusive [inhibitor, partial curve]

Question: `NC(=O)CSc1nnc(-c2cc(-c3ccc(Cl)cc3)nc3ccccc23)o1` was tested. Which Potency did it give?
Answer: inconclusive [inhibitor, partial curve]

Question: `Cc1cc(N2CCOCC2)nc2ccc(NC(=S)NCc3ccc4c(c3)OCO4)cc12` was tested. Which Potency did it give?
Answer: inconclusive [activator, partial curve, poor fit]
